Our source for the binding signal (log2 normalized intensity) values is paper PMC10726135.

Some of the results follow. At the low end of the ranking the order means little. The protein was read in a cell extract, so binding may be indirect.

In the assay the target is T1, HNF4alpha8 (COS-7 nuclear extract) (UniProt P41235-5).
T1 sequence: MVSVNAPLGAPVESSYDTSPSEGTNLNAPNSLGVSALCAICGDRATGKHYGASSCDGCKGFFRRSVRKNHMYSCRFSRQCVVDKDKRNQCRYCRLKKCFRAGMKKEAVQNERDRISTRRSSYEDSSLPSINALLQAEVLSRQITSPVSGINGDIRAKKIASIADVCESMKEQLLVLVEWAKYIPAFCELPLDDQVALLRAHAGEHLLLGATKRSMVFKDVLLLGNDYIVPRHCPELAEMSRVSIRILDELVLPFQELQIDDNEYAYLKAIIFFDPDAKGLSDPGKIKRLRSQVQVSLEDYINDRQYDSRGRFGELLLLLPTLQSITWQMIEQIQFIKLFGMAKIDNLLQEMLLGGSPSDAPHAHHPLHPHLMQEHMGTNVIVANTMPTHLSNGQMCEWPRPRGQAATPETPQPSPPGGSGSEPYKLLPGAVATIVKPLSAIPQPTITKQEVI
The experiment in a line: protein-binding microarray. Conditions: COS-7 nuclear extract on double-stranded Agilent 4x180k PBM; binding buffer, salt, pH and temperature not given; high values mean tight binding; double strand, one strand shown; sequences stand for … in …GCCTAGGGAGATTAGAGTATCGGTCGA
As for ATGTTCAAGAAGTTCCAAAGGCCAGTGTGG, the binding signal (log2 normalized intensity) was 1.92. In the case of TAAGCTACTGAAAATGACCTTTGTTCCCTG it was 9.03; in that of TACTTAGATCAAGATTTTCAACTTGAGGAA, -1.29. In the case of AAAGTAAGGTGAAGCCCAGCAGCTCCAGGA it was -1.27. In the case of TGGAAGTCGCCGTGAGGTTATTTGCAGACT it was 0.17. With ATCAAAGTATGAGAGCCTGAGAACACTTAT, the binding signal (log2 normalized intensity) is -1.31. Turning to AGAACTCTTCGAAGACACAAAGCTTGGGTT, the binding signal (log2 normalized intensity) is -1.3. In the case of GTATCTGATCTGTGTTTCCACAAACACAGA it was -0.158; in that of GGGATTACAGGCGTGAGCCACCGCGCCCCG, -1.19; in that of GAGCACTCATTCCTATTCGGTGCTGACCTT, 3.97. Take ACTGATAATTGAAAACAGAGATTGGGACTA: the binding signal (log2 normalized intensity) is -1.26.

With CTGACATTCTCCACTTGGTGACTGTCATTT, the binding signal (log2 normalized intensity) is 0.274. In the case of AGGAAGGTCTGATGGGCCAGGCAGGACAGT it was -1.32; in that of TGAACTTTGAACACCTCTTCTTTCTTCTCT, 4.71; in that of GAGAGGCTGCTCAGTTTAAGTCAAAATATA, -0.965.

For the sequence CGGTCTGCCCTCTTGTCCTTCCCCTTTTGT, the binding signal (log2 normalized intensity) is 3.33. The same measure for AAGTAGGGAGGAGGGGAGGGGCCCATGTGG: -1.1; for CCGAGGTCACTGTATGCCCGAAAGACGCGG: -1.31; for TAGCATCACGAAAGGCAACATCTTGAGCCA: -1.29.

TAAAACCATGCAAATTGCTGACTTTCTGTG: the binding signal (log2 normalized intensity) was -1.29. In the case of CTACAATCCTCTAAAAAAATAGTTTCAACT it was -1.35. With TTGGGCGCCGGAACTGGTCCGGCCCGACTC, the binding signal (log2 normalized intensity) is -1.35. The same measure for AGGACATTTCAGCAAAGTTCAGAGAGGAAT: -1.37. In the case of ATAGAGAAGTTTTGAAACCCTGTTCTTGTA it was -0.0698; in that of CAGGTATTTGGACTTTTTGTAGTTTCAGCT, 2.16. In the case of GGGTCAAGAAGCTCTGGCGCCATCTGGTTT it was -1.24; in that of CTCCTGGCAGAGCATAGAAGTAAGAAATCA, -1.09. For the sequence AATCGCCTGATTGGTCATACTTGACCCACA, the binding signal (log2 normalized intensity) was found to be 3.3. In the case of TCTTAACATCAGAAGTTGGACTTTGTACAT it was 9.76; in that of GATCTCAGGGTGGACTTTAAACATTCCCAC, 5.2. The same measure for TGGTTGGATTTCTTGGCTTCTCTTGGACCT: 3.54; for AGCTGACGCCCCACCCCCTCCACCCCTGCC: 6.68. In the case of TCATGGGTGACCCGTTAAGAATGAGACATT it was 1.58. On to GACCTTGAAATGCCATGTGATCTCTAGACT, for which the binding signal (log2 normalized intensity) is 1.88. In the case of GTAAAGGGTGACTTTCCAGAACTATCATAC it was -1.22; in that of AAGTTACAAGATCTTTGGACTATTGTGAAG, 3.34; in that of TCAACCTGTGAAAATTGGTACTGGACATGG, 1.33.

On to GACCATGTGATGTGAAGAGTGTGGACTTTC, for which the binding signal (log2 normalized intensity) worked out at 4.87. In the case of CCTGGCTTGTAATTCAAGACTATAGACTGT it was 0.744. The same measure for TTATCTTGGGGCTAATGTCTCTCTGGCCGG: 0.958; for TTGTTTACTCATGTGGTCCTAAGACTAACC: 0.432; for CCTGTGATACAACGGTTCAAAGGACAGACT: 2.41. As to GCGCCCGTAATCCCAGCTTATGTTTGCAAG, the binding signal (log2 normalized intensity) was -0.507.

For the sequence CAAGGTTTGTAACAAGTGCTTTCTTCCCTC, the binding signal (log2 normalized intensity) stood at 0.407. In the case of TTCTAGGTAATCACCCTCTCCACCCCCATG it was 5.07. In the case of TGCTTGGAATGCTATTTGCATTGACACAAC it was 1.19; in that of AGGCCAAGCAGCTGTGATGAGGCCAGCAGG, -1.21; in that of TCTGTGTACAAAGCCCCATATTCATAGACT, 1.92. Consider ATTACCTGGTCAGAAGAAACATGCGATACT, for which the binding signal (log2 normalized intensity) is -1.31. As to GGGGAACAGGCCTCCCCCCTTCTGTTTCCA, the binding signal (log2 normalized intensity) was determined as 2.54. In the case of TAGGACAGAGCAGATGAAAGTAGTTGGGGA it was -1.3; in that of TAGGTGGTCTGTTTGTGAAACAGTGGGCAA, 0.904. In the case of TTTGAGTCATAAGAAACATTTTACAACCTA it was -1.39; in that of GGAACAAAGGTCAGTCCCGCAGTGAGGGAC, 3.02.

On to GGCACAATGCTGCAATTCTCTTTGCCAAAG, for which the binding signal (log2 normalized intensity) is -1.29. In the case of TAACCAGTGAAATTGACAAGAGTGTGGCTC it was 0.244. In the case of GATTGCTTAATGCAAACTCCAGCATGAGGG it was -1.31; in that of AAGCAGCATAGGGAGAATGATAAGATATAT, -1.37; in that of TTTGTGTGAGGGAGAAGTTTTATGGCAGGG, 0.341. The same measure for TCAGCCTGGCTGAAGACCTGTACAGGGACT: 1.98; for ATCAAGGAGGACTTTGGAATGGCAGTGCTT: 3.72; for GGTAAACAGCCTCTAAGCACGGCCAGGATT: -1.34. As to GCCACAATTAATGTACCCCCGGAAACACGT, the binding signal (log2 normalized intensity) is 4.05.

As for GGGAATTACTCTTCTATTACATGGAAGCCT, the binding signal (log2 normalized intensity) was -0.365. The same measure for TCGAATGGTATGCTAGAGTACTTGGACTTT: 7.5; for ATCCTAGGAGAGCCAAATCTTAAGGGTTAA: 0.92. In the case of TTCTGAGGAGAAGAATGAAAGCCAAGGCAG it was -1.26. The same measure for AATACACAGCTAGCAGGTGACAAATCCAGG: -1.4; for GGCCGTGGGTGGAAGGAAAAGAGGAAAACC: -1.35. In the case of TCTATCTCATTACTAATCCTCTTCTGTCCT, the binding signal (log2 normalized intensity) was found to be 1.01. In the case of GCAAATAAAGCTAACCAGCTCTATCAGTCT it was -1.25; in that of TCTGCGTCTTACTAAATGCAGCCTTGGGCA, -0.894.
